# From PubChem BioAssay AID2100 (National Center for Advancing Translational Sciences (NCATS), 2009)
# Out of some 300,000 compounds screened, about 1,200 (0.4%) were called active. The shares of active, inactive and inconclusive entries below differ from those in the screen. Calls come from the whole dose curve; as a rule, active = well fitted inhibition curve with a large enough effect; inconclusive = small, poorly fitted or top-dose-only effect, or another doubt; inactive = no such curve, though single readings can be large or run the other way. A potency beside an inconclusive call is a rough fit, not a confirmed value.
# Target: Lysosomal alpha-glucosidase (Homo sapiens) (UniProt P10253)
# Test: qHTS Assay for Inhibitors and Activators of Human alpha-Glucosidase Cleavage of Glycogen;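 for activity change, negative = inhibition: 0% = full enzyme reaction and -100% = no-enzyme basal signal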
# Conditions: recombinant GAA, glycogen substrate, Amplex Red glucose oxidase fluorescence; activity change, negative = inhibition: at 76.4 µM (top of the series) unless noted
# Summary of the method: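 Recombinant human alpha-glucosidase (4 nM final) hydrolysed bovine liver glycogen (30 ug) for 40 min at 37 C in pH 5.0 citrate/phosphate with 0.01% Tween-20. Released glucose detected by glucose oxidase/Amplex Red, Ex 573/Em 610 nm. Compounds up to 77 uM; AC50 from Hill fits.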
# Potency is the fitted concentration of half-maximal effect.
Structure (SMILES),Potency,"activity change, negative = inhibition"
O=C(NNc1cc(C(F)(F)F)ccc1Cl)c1ccc(=O)[nH]c1,"inconclusive: 50.1 µM [inhibitor, single point]",
Cc1cc(S(=O)(=O)Nc2c(C(=O)O)[nH]c3ccccc23)ccc1F,active: 2.22 µM,
Cc1c(N=C2N=C(NC(=O)c3cccs3)c3ccccc32)c(=O)n(-c2ccccc2)n1C,"inconclusive: 39.8 µM [inhibitor, partial curve]",
CCN(CC)C(=O)COc1ccc(/C(C)=N/Nc2ncc(Cl)cc2Cl)cc1,"inconclusive: 14.1 µM [inhibitor, partial curve]",
Cc1cc(O)c(C=O)c2c1C(=O)Oc1c(CO)c(O)c3c(c1O2)C(O)OC3=O (centres undefined),"inconclusive: 35.5 µM [inhibitor, partial curve]",
CCOC(=O)c1cc2c(ccn2C)n1CC(=O)N1CCN(c2cccc(C(F)(F)F)c2)CC1,,inactive: -2.95%
Cc1cccc(NC(=S)NNC(=O)CCn2nc(C)c([N+](=O)[O-])c2C)c1,"inconclusive: 14.1 µM [inhibitor, partial curve]",
CCN1CCCc2cc(CN(CCN3CCOCC3)C(=S)Nc3cc(F)cc(F)c3)ccc21,"inconclusive: 14 µM [inhibitor, partial curve]",
CC(C)CC(=O)Nc1cc(C(F)(F)F)ccc1N1CCOCC1,"inconclusive: 7.94 µM [inhibitor, single point]",
CCOC(=O)C/C(C)=N\Nc1ccc([N+](=O)[O-])cc1[N+](=O)[O-],"inconclusive: 39.5 µM [inhibitor, single point]",
C/C(=N/NC(=O)c1ccccc1O)c1ccc(N2C(=O)C3CCCCC3C2=O)cc1 (centres undefined),"inconclusive: 39.8 µM [inhibitor, single point]",
CN(C)Cc1c(C(=O)N/N=C/C2CC=CCC2)nnn1-c1nonc1N (centres undefined),"inconclusive: 12.6 µM [inhibitor, partial curve]",
CCc1ccccc1NC(=O)C1(S(=O)(=O)c2ccc(Cl)cc2)CC1,,inactive: 4.52% [at 76.3 µM]
Cc1nnc2sc(SCc3ccccc3)nn2c1=O,,inactive: -0.215%
COc1ccccc1NC(=S)NNC(=S)Nc1ccc(OC(F)F)cc1,"inconclusive: 14.1 µM [inhibitor, partial curve]",
CC1=NN(c2ccccc2)C(=O)/C1=C/c1cccc(C)c1,"inconclusive: 39.8 µM [inhibitor, single point]",
Cc1ccn2c(Nc3ccc(F)cc3)c(-c3ccc(C)o3)nc2c1,"inconclusive: 4.47 µM [inhibitor, full curve]",
Clc1cccc(C2Nc3cccc4cccc(c34)N2)c1Cl,"inconclusive: 25.1 µM [inhibitor, single point]",
Cn1ncc2c(Nc3ccc(O)cc3)nc(Cl)nc21,"inconclusive: 31.4 µM [inhibitor, single point]",
Cc1ccc(C2CC2c2n[nH]c(=S)n2-c2ccc(C)cc2)cc1 (centres undefined),"inconclusive: 35.5 µM [inhibitor, single point]",
COc1ccc(CNC(=O)c2cc3c(-c4ccccc4F)nn(C)c3s2)c(OC)c1,,inactive: -14.3% [at 76.3 µM]
Cc1ccc(-n2c(C)c3c(C)nnc(C)c3c2C)cc1C,"inconclusive: 20 µM [activator, single point]",

Structure (SMILES),Potency,"activity change, negative = inhibition"
C=CCOC(=O)C1=C(C)NC(SCC(=O)OCC)=C(C#N)C1c1ccc(O)c(OC)c1 (centres undefined),"inconclusive: 35.5 µM [inhibitor, partial curve]",
CN(C(=O)N1CCN(S(=O)(=O)c2ccccc2)CC1)c1ccccc1,,inactive: -14.8%
O=C(c1ccc2c(c1)OCO2)N(c1ccc(Br)cc1)C1C=CS(=O)(=O)C1 (centres undefined),,inactive: -1.25% [at 76.3 µM]
Cc1ccc(CNc2ccc3c(c2)OCO3)c(C)c1,"inconclusive: 28 µM [inhibitor, single point]",
O=C(NNc1nc2ccccc2o1)c1ccccc1,"inconclusive: 7.94 µM [inhibitor, partial curve]",
CCOc1ccccc1NC(=O)c1cn(C2CCCC2)c(=O)c2c1c1ccccc1n2C,,inactive: -5.16% [at 76.3 µM]
CCOc1ccc(/C=N/NC(=O)c2cc(-c3ccccc3)nc3ccccc23)cc1O,"inconclusive: 28.2 µM [inhibitor, single point]",
O=C(Cc1cccc2ccccc12)NN1C(=O)CSC1=S,"inconclusive: 15.8 µM [inhibitor, partial curve]",
O=C1c2cccnc2-c2ncccc21,"inconclusive: 3.52 µM [inhibitor, single point]",
S=C(NCc1ccc2[nH]c3c(c2c1)CCCC3)Nc1ccccc1,"inconclusive: 28.2 µM [inhibitor, partial curve]",
O=C(/C=C/c1ccco1)NC(=S)Nc1ccccc1O,"inconclusive: 50.1 µM [inhibitor, single point]",
S=c1[nH]nc(-c2ccco2)n1/N=C/C(Cl)=C/c1ccccc1,"inconclusive: 12.5 µM [inhibitor, partial curve]",
CCc1cccc(C)c1Nc1c(-c2ccc(F)cc2)nc2sccn12,"inconclusive: 35.5 µM [inhibitor, partial curve]",
COc1cc(C(C)=O)ccc1Oc1ncnc2c1cnn2-c1ccc(F)cc1,,inactive: 8.64%
COc1ccc(NC(=O)n2nc(OC(=O)c3cccs3)cc2N)cc1,"inconclusive: 28.2 µM [inhibitor, partial curve]",
O=C(O)c1ccc(O)c(N2C(=O)Nc3ccccc3N2O)c1,"inconclusive: 50.1 µM [inhibitor, single point]",
CCc1ccc(NC(=O)Cn2c(=O)c3cccn3c3ccccc32)cc1,"inconclusive: 56.2 µM [inhibitor, partial curve, poor fit]",
COc1ccc(O)c(CNc2ccccc2F)c1,"inconclusive: 3.55 µM [inhibitor, full curve]",
O=C(Nc1ccc(N2CCCC2)cc1)C(c1ccccc1)c1ccccc1,,inactive: 3.12%
Cc1ccc(C)c(NC(=O)CSc2nc3nccnc3c(=O)n2CCc2c[nH]c3ccccc23)c1,,inactive: 6.82% [at 76.3 µM]
O=c1[nH][nH]cc1C=Nc1cc(Cl)ccc1O,"inconclusive: 17.8 µM [inhibitor, partial curve]",
Cc1ccc(NCC(O)C(O)C(O)CO)c(N=Nc2ccccc2)c1C (centres undefined),"inconclusive: 5.01 µM [inhibitor, single point]",
